# From PubChem BioAssay AID493208 (National Center for Advancing Translational Sciences (NCATS), 2011)
# In all, about 44,000 compounds went through this assay and about 340 (0.77%) were called active. Inconclusive results (about 5%) are left out. Calls follow the shape of the dose curve; as a rule, active = well fitted inhibition curve with a large enough effect; inconclusive = small, poorly fitted or top-dose-only effect; inactive = flat fitted curve, though single readings scatter. The list shows a part of the results.
# Assay: Acumen qHTS Assay for Inhibitors of the mTORC1 Signaling Pathway in MEF (Tsc2-/-, p53-/-) Cells: Sytravon;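 also: plate controls were DMSO for no effect and rapamycin for full effect; nearly all actives have a fitted effect of over 50% in size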
# Conditions: phospho-rpS6 immunofluorescence/PI, 24 h; series mostly up to 38.3 µM; activity change, negative = inhibition: at the top concentration
# Method in brief: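 Immunofluorescence of rpS6 phosphorylation in Tsc2-/-, p53-/- MEFs after 24 h compound exposure, normalized to propidium iodide signal. Activity is expressed as % positive cells, thresholded with 7.5 nM rapamycin.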
row,Structure (SMILES),"activity change, negative = inhibition"
1,COc1cccc(CN2C(=O)CN(C3CCCCC3)C(=O)C2c2ccc(OC)c(OC)c2)c1 (stereo not given),inactive: 6.95%
2,CCOc1ccc(CNC(=O)C2CCN(S(=O)(=O)c3cn(C)cn3)CC2)cc1OC,inactive: 11.9%
3,COc1ccc(C2C=C(c3ccccc3)Nc3nc(NC(=O)/C=C/c4ccc(F)cc4)nn32)cc1 (stereo not given),inactive: 1.68%
4,COc1ccc2c(c1)c1c(c(=O)n(-c3ccccc3C)c(=O)n1CC(=O)N1CCCC1)n2C,inactive: -2.61%
5,COc1ccc(-c2cc(C(F)(F)F)c(C#N)c(SCC(=O)Nc3ccccc3F)n2)cc1,inactive: -17.5%
6,COc1ccc(-n2c(/C=C/c3c(C)[nH]c4ccccc34)nc3ccccc3c2=O)cc1,inactive: 1.38%
7,Cc1nn(C)c2c1c(-c1ccccc1)cc(=O)n2Cc1ccc(Cl)cc1,inactive: -0.0238%
8,COc1cccc(CNc2nccn(-c3ccc(OC)c(OC)c3)c2=O)c1,inactive: 1.36%
9,COc1ccccc1C(=O)Nc1ccc(OCc2cc(=O)n3ccc(C)cc3n2)cc1,inactive: -1.72%
10,CCOc1ccc(S(=O)(=O)N2CCC(N3CCN(Cc4ccc(C)cc4)C(=O)C3=O)CC2)cc1,inactive: 6.73%
11,COc1ccc(CNC(=O)c2cnn(-c3ccc(C)cc3)c2-n2cccc2)cc1OC,inactive: -2.91%
12,COc1ccc(C)cc1-n1c(-c2ccc(C)cc2)cc2c1CC(C)(C)CC2=O,inactive: -0.342%
13,COCc1cc(C)nc2sc3c(c12)NC(c1ccc(O)cc1)N(c1ccc(C)cc1)C3=O (stereo not given),inactive: 0.0534%
14,O=C(OCc1cccc(C(F)(F)F)c1)c1ccc(-c2nnn(Cc3ccc(F)cc3)n2)cc1,inactive: -3.3%
15,CCn1c(=N)c(C(=O)NC2CCCC2)cc2c(=O)n3ccccc3nc21,inactive: -21.4%
16,Cc1nn(C(=O)c2ccccc2)c(C)c1S(=O)(=O)N1CCCCCC1,inactive: -0.623%
17,CCN(C(=O)c1cn(-c2ccc(OC)cc2)c(=O)c2ccccc12)c1cccc(Cl)c1,inactive: -24.6%
18,CC(C)N1CCc2nc(SCC(=O)Nc3cccc(F)c3)[nH]c(=O)c2C1,inactive: 2.26%
19,COc1ccc(-c2nc3scc(CCNC(=O)c4cc(OC)cc(OC)c4)n3n2)cc1,inactive: 1.65%
20,CCOc1ccc(C(=O)OCc2cc(=O)n3cc(C)sc3n2)cc1,inactive: 0.793%
21,Cc1cccc(C(=O)Nc2ccc3oc(-c4ccncc4)nc3c2)c1,inactive: -18.5%
22,CCCCCn1cc2c(c1-c1ccc(Cl)cc1)c(=O)n(C)c(=O)n2C,inactive: -2.99%
23,COc1ccc2c(c1)C=C(C(=O)NCc1cc(Br)ccc1OC)CO2,inactive: 2.23%
24,CCOC(=O)C1CCCN(S(=O)(=O)c2ccc3[nH]c(=O)oc3c2)C1 (stereo not given),inactive: 0.0241%

row,Structure (SMILES),"activity change, negative = inhibition"
1,COc1ccccc1NC(=O)c1sc2ncn(Cc3ccccc3Cl)c(=O)c2c1C,inactive: 0.749%
2,CCc1ccccc1NC(=O)c1sc(-n2nc(C)c(Cc3ccc4c(c3)OCO4)c2C)nc1C,inactive: -4.3%
3,COC(=O)c1cccc(Nc2nn3c(=O)c4cc5c(cc4nc3s2)OCO5)c1,inactive: -15.9%
4,COc1ccc(S(=O)(=O)NCC(c2ccc(N(C)C)cc2)N2CCOCC2)cc1 (stereo not given),inactive: 1.75%
5,COc1ccc(-c2[nH]c3ccccc3c2SCCNC(=O)c2ccc(S(=O)(=O)N(C)C)cc2)cc1,inactive: 1.76%
6,Cc1ccc2[nH]c3c(=O)n(CC(=O)NC(C)C)ncc3c2c1,inactive: -0.362%
7,COc1ccc(CNC(=O)CSc2ncc(S(=O)(=O)c3ccc(Br)cc3)c(=O)[nH]2)cc1,inactive: -0.511%
8,O=C(CSC1=Nc2ccccc2N=C(c2ccc(F)cc2)C1)NCc1ccccc1Cl,inactive: 1.13%
9,CCCCOc1ccc(CNC(=O)Cc2ccc(NC(=O)N3CCSc4ncccc43)cc2)cc1,inactive: -27.8%
10,CCNc1oc(-c2ccc(COc3ccc(Cl)cc3)o2)nc1C#N,inactive: -0.795%
11,NC(=O)c1ccccc1NC(=O)Cn1nc(Cc2cccnc2)c2ccccc2c1=O,inactive: 1.02%
12,CCOc1ccc(CNC(=O)c2sc3ncnc(N(C)C4CCCCC4)c3c2C)cc1,inactive: 1.94%
13,Cc1cccc(NC(=O)CSc2nc(=O)n(Cc3ccccn3)c3c2CCC3)c1C,inactive: -4.88%
14,COc1ccc(CNC(=O)c2cc3cccc4c3n2CC(C)S4)c(OC)c1 (stereo not given),inactive: -23.5%
15,O=C(CSc1ncc(CO)n1Cc1ccc(Cl)cc1)NCc1ccc(F)cc1,inactive: -10.3%
16,COc1ccc(C(=O)Oc2cc(-c3ccc4c(c3)OCO4)cc(=O)c3c(C)oc(C)c23)cc1,inactive: 3.6%
17,Cc1ccc(Cl)cc1NC(=O)CSc1nc2c(c(=O)[nH]1)CN(Cc1ccccc1)CC2,inactive: 0.383%
18,COc1ccc(S(=O)(=O)N2CCN(CC(=O)Nc3ccc(Cl)c(C(F)(F)F)c3)CC2)cc1,inactive: -3.69%
19,COC(=O)c1cc2oc(C)cc2n1CC(=O)Nc1cc(Cl)ccc1OC,inactive: -5.81%
20,CCOC(=O)c1ccc(NC(=O)CCc2c(C)nc3c(-c4ccc(F)cc4)c(C)nn3c2C)cc1,inactive: 3.9%
21,Cc1ccccc1C(=O)Nc1ccc(C(=O)OCc2cc(=O)n3nc(C(C)C)sc3n2)cc1,inactive: 0%
22,COc1ccc(NC(=O)C2Cc3ccccc3N2C(=O)c2ccccc2)cc1OC (stereo not given),inactive: 6.44%
23,Cc1ccc(-c2onc(C)c2C)cc1S(=O)(=O)Nc1ccc(Cl)cn1,inactive: 5.67%
24,CCOc1ccc(NC(=O)N(C(C)C)C2CCN(C(C)=O)CC2)cc1,inactive: 6.07%

row,Structure (SMILES),"activity change, negative = inhibition"
1,O=S(=O)(c1ccc2nc(N3CCN(c4ccccc4)CC3)ccc2c1)N1CCCCC1,inactive: -3.35%
2,COc1ccc(-c2noc(-c3cccc(OC)c3OC)n2)cc1,inactive: -13.7%
3,Cc1cccc(NC(=O)CSc2nc3c(oc4ccccc43)c(=O)n2-c2ccc(F)cc2)c1,inactive: 4.73%
4,COc1ccc2c(CNCCc3ccccc3)c(C(=O)O)n(Cc3cccc(F)c3)c2c1,inactive: -0.565%
5,COc1ccc(Nc2cc(C(=O)NCc3ccccc3)c3ccccc3n2)c(OC)c1,inactive: 5.58%
6,Cc1oc2ccc(O)c(CN3CCCC3)c2c1C(=O)Nc1cccc(Cl)c1C,inactive: -5.14%
7,CCOc1ccc(-c2cn3c(n2)sc2cc(C(=O)NC4CCCc5ccccc54)ccc23)cc1 (stereo not given),inactive: -16.3%
8,Cc1ccc(NC(=O)CC(C)S(=O)(=O)c2ccc3c(c2)NC(=O)CO3)cc1C (stereo not given),inactive: -5.8%
9,COc1ccc(NC(=O)c2cn3c4c(ccc(Cl)c4c2=O)OC(C)C3)cc1OC (stereo not given),inactive: 0.396%
10,CSc1ncc(C(=O)Nc2ccc(C(C)=O)cc2)c(-c2ccccc2)n1,inactive: -3.31%
11,COc1ccc(N(Cc2cccs2)C(=O)COc2cc(C)c(Cl)c(C)c2)cc1,inactive: -9.68%
12,CCOc1ccc2nc(NC(=O)c3cc(=O)c4cc(C)cc(C)c4o3)sc2c1,inactive: 8.48%
13,Cc1cccc(NC(=O)Cc2ccc(-n3c(C)nc4cccnc43)cc2)c1C,inactive: -8.31%
14,O=c1c2cnn(-c3ccc(F)cc3)c2ncn1Cc1ccc(F)cc1,inactive: 0.0205%
15,COc1ccc(Cl)cc1NC(=O)Cn1cc2c(n1)CCC(C)C2 (stereo not given),inactive: -5.05%
16,CSc1nnc2[nH]c(=O)cc(C)n12,inactive: 1.24%
17,COc1ccc(CNC(=O)C2Cc3cc(S(=O)(=O)N4CCCCCC4)ccc3N2C(C)=O)cc1 (stereo not given),inactive: 0%
18,COc1ccc(CNC(=O)c2ccc(-c3nc(CSc4ccccc4)c(C)o3)cc2)c(OC)c1,inactive: -0.479%
19,CC(=O)c1cccc(NC(=O)c2cc3nc(-c4ccc(Br)cc4)cc(C(F)(F)F)n3n2)c1,inactive: -0.0667%
20,CCc1ccc(NC(=O)c2cc3c([nH]c2=O)CC(C)(C)CC3=O)cc1,inactive: -6.07%
21,N#Cc1c[nH]n2c(NC3CCCCC3)c(-c3cccc(Cl)c3)nc12,inactive: -0.913%
22,CCOc1ccc2oc(=O)cc(CN3CCN(c4ccccc4)CC3)c2c1,inactive: 4.76%
23,Cc1ccc(-c2nc(C)c(CCNC(=O)C(=O)Nc3ccc4c(c3)OCO4)s2)cc1,inactive: 0.514%
24,COc1ccc(CCN2C(=O)N(c3ccccc3)C(=O)C2CC(=O)Nc2ccccc2)cc1 (stereo not given),inactive: -3.71%

row,Structure (SMILES),"activity change, negative = inhibition"
1,CCCN1C(=O)C2(c3ccccc31)c1c(oc3ccc(C)cc3c1=O)C(=O)N2CCOC (stereo not given),inactive: -0.927%
2,CCOC(=O)C1CCN(CCC(=O)Nc2ccc(OC)cc2)CC1,inactive: 4.22%
3,Cc1nc(N2CCOCC2)c2c(C(=O)N3CCN(c4cccc(C)c4C)CC3)c(C)oc2n1,inactive: 6.04%
4,Cc1cc(C)c(NC(=O)CCC(=O)N2Cc3ccccc3Oc3ncccc32)c(C)c1,inactive: -4.17%
5,COC(=O)c1ccccc1NC(=O)Cn1c(=O)n(CCCC(=O)NCCc2ccc(OC)c(OC)c2)c(=O)c2ccccc21,inactive: -6.65%
6,COc1ccc(Nc2cc(C)c3cc(NC(=O)c4cc(OC)cc(OC)c4)ccc3n2)cc1,inactive: -3%
7,Cc1ccc(C)c(NC(=O)NCc2ccc3c(c2)CCN3C(=O)c2ccccc2)c1,inactive: 3.32%
8,CCCOc1ccc(C2c3c(oc4ccccc4c3=O)C(=O)N2c2nc(C)c(C(=O)OCC)s2)cc1 (stereo not given),inactive: -3.11%
9,COc1ccc(S(=O)(=O)NCc2ccc(C(=O)NCc3ccccc3)cc2)cc1,inactive: -17.5%
10,CC(=O)c1ccc(N2CCN(C(=O)c3ccc(Cn4c(=O)[nH]c5ccccc5c4=O)cc3)CC2)cc1,inactive: -3.89%
11,CC(C)c1ccc(NC(=O)C2(C)Cc3ccccc3C(=O)O2)cc1 (stereo not given),inactive: -10.5%
12,Cc1ccc2c(c1)-c1c(cnn1CC(=O)N1CCN(c3cc(Cl)ccc3C)CC1)CO2,inactive: -3.49%
13,CC(C)C(NS(=O)(=O)c1cccc2cccnc12)C(=O)Nc1ccc(OC(F)(F)F)cc1 (stereo not given),inactive: -0.922%
14,O=C(c1ccccc1)c1ccc2nc(Nc3cc(Cl)ccc3O)c3nncn3c2c1,inactive: -5.55%
15,Cc1ccc(CNC(=O)CCCCn2c(=O)c3ccccc3n(Cc3ccc(C)cc3)c2=O)cc1,inactive: 7.89%
16,CCCCSCCCNC(=O)c1cn(C)c2ccc(S(=O)(=O)N3CCCC3)cc2c1=O,inactive: -0.288%
17,Cc1cc(C)cc(OCC(=O)N(Cc2ccc(Cl)cc2)CC2CCCO2)c1 (stereo not given),inactive: -7.14%
18,CCOC(=O)c1c(S(=O)(=O)N2CCC(C(=O)NCc3ccccc3OC)CC2)c(C)n(C)c1C,inactive: -7.41%
19,Cc1ccc(-n2nc(C(=O)Nc3ccc(C)c(F)c3)c(=O)n(C)c2=O)cc1,inactive: 1.28%
20,O=C(NC1CCCC1)c1ccc2c(=O)n(Cc3ccccc3)c(SCc3ccccc3)nc2c1,inactive: -0.686%
21,COc1ccc(-c2nc3ccc(C)cn3c2Nc2ccc3c(c2)OCO3)cc1,inactive: 2.1%
22,CCc1cccc(C)c1NC(=O)C1CCN(S(=O)(=O)Cc2ccccc2)CC1,inactive: -0.891%
23,Cc1ccc(-n2nnnc2CNC(=O)c2ccccc2)cc1C,inactive: 0%
